Experimental data taken from the supplement of paper PMC11417369.
The list shows a part of the results.

test system: PfHDP1 homeodomain (GST-tagged); test: gcPBM binding intensity (ln(normalized median fluorescence intensity)); higher = stronger DNA binding
Summary of the method: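 Plasmodium falciparum DNA-binding domains carrying a GST tag were expressed in E. coli and applied for 1 h, at about 25 μg on average, to an Agilent 4 × 180k array. The array held primer-extended double-stranded 36-bp intergenic genomic probes together with negative controls, and binding took place in 1× PBS with 1% milk, 0.2 mg/ml BSA, 0.5% salmon testes DNA and 0.03% Triton X-100. An Alexa488 anti-GST antibody detected bound protein, and the array was scanned at 488 nm. Binding intensity is taken as the highest Masliner-normalised natural-log median intensity across replicate spots of either probe orientation.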

Sequence | gcPBM binding intensity (ln)
TTTATATACATTTTAAATTTTAATGTAACCCATGGG [TGCATGCA_negctrl_site115] | 6.08
TATATATTTATAAATGAACACACACCCAATTTGAAT [CACACA_site9113] | 7.16
TATATATATTTATGTACACACATCAATCATATTAAC [CACACA_site5127] | 6.57
ATAAAGATTAATTCAAGTACACATCAAATACTACAA [XGTACX_site8794] | 6.53
AATATATACATTTATATACACACCTATATATATATA [CACACA_site1972] | 9.13
AAATTAATAAGTCACACACACATATATAATATATAT [CACACA_site799] | 6.87
GTTATATGTTATATATATATATATATATATATATAT [TGCATGCA_negctrl_site428] | 9.32
AGCATCATTTTACACACATGCAAATGTAAAATAGGA [TGCATGCA_site460] | 7.68
CATATACATATATGTAGTACGTGTTCTTCTATATGA [XGTACX_site8344] | 6.66
AAATTGAATTAGTTAACACACAACTTTTATTTCATA [CACACA_site2840] | 6.26
TACATATACAGACACACACACACACCCCCACAAAAA [CACACA_site495] | 8.14
ATTAATATGAAACGATTATAAGAAAGAAAAGAAATG [GTGCAC_negctrl_site701] | 6.54
TTTCTTTTTTTTTTTTTTTCTTTTTTTTTTTTTTTC [CACACA_negctrl_site1025] | 5.53
GGAATATTTTATGAGTGTACATTTTTTTTTTTTTTT [XGTACX_site2370] | 6.56
ATAATCCAACTTTGAGTGCGTGGTGTTTTTTTTTTC | 6.38
ATATTCATATATACTTCACACACATTTTATCATTCA [CACACA_site8784] | 6.6
TATATATACATATACACACATACGTACATACATATA [CACACA_site3585] | 6.9
TACATACATATATATACACACATATATAATATATAT [CACACA_site388] | 6.89
AAAAAAAAAAATAAATAAATAAATAAATATATATAT [TGCATGCA_negctrl_site468] | 7.84

Sequence | gcPBM binding intensity (ln)
ATGAAAGTAAGACATGCATGGAATTTTTTTTATTAG [TGCATGCA_site348] | 5.95
TATTCCCTTCTTCCTTCTGTTTTTGATATTAAAGGG [GTGCAC_negctrl_site270] | 6.29
ATACTTTATTCGTTAGCACACAATTCAAGTTGATTC [CACACA_site1123] | 6.95
AAGATACCCCAAAATTGTACATATTAAAATAATAAA [XGTACX_site3603] | 7.04
TATAATACAACATGCACACATATATATGTGAATCTC [CACACA_site2490] | 9.18
TTTAAAAATAAAAGTACACACATAAACATATTACAC [CACACA_site1428] | 6.99
AGGTATATATACATATGTACGTATATATATATATAT [XGTACX_site5115] | 9.16
ATAAAATAAACATAAATAAACATAAATAAACAAAAA [CACACA_negctrl_site1270] | 6.59
TTTCTAATTTATATCACACACATATTTATATAGTAA [CACACA_site6813] | 6.52
GGCGTATGTGTATATACACACCCACGTATATAAATA [CACACA_site7489] | 7.38
TTATATAAATTATTTACACACAAACATTTATACTTT [CACACA_site3449] | 6.69
TTTTTTTTTTTTTGCACACACATTGAATTATTATTC [CACACA_site197] | 9.98
TATACCTATATACATACATGCAAATATATATTCATA [TGCATGCA_site269] | 6.83
TATATAGAGAGATATGCACACTGTATGAATGCCCCC [CACACA_site5476] | 9.32
ATAAGAAAATATAAAATGCACACTATAAATTGTATA [CACACA_site143] | 9.14
TTGTAAAACTTATAATGTACATTTTTTTTTTTTTTT [XGTACX_site5398] | 6.44
AGGGACATCTATATCACACACAAAAATTAGTCCCTT [CACACA_site7330] | 6.42
TTTTTTTTTTTTGAAGTGCATTACTTTTTTTGTATT [GTGCAC_site9811] | 8.58
TTTTTTGTGTTTGGTACACACGTTATAAAAAATAAA [CACACA_site4866] | 6.43

Sequence | gcPBM binding intensity (ln)
GAAAATAGCTAAAATACACACAATTAAAAATTATTA [CACACA_site3506] | 6.09
AGGAATATAAAGTGCACACATAATTTGGGGGCAAAA [CACACA_site258] | 9.6
ATATGTCACTTGTATACACACATATATATTTCAATC [CACACA_site3256] | 7.79
CTGAAAAAAAAGCTTGCACACGTATTTGCTTTATGT [CACACA_site8427] | 8.25
TTACTTATAAATAAATATACAAAAATGTTATATATA [XGTACX_negctrl_site223] | 5.76
TTTTTTTTGTGTTCAAGTACAAAATTTTAAAGGTCA [XGTACX_site4011] | 6.28
TATATATATATATAAGCACACAAACAAAAAAAATTA [CACACA_site9293] | 8.9
GGTTATTTCACAGAATGTACTTATTATATATAAAAT [XGTACX_site8886] | 6.24
AAGATAAATTATTATAAATCAATTGTGCCAACAATA [CACACA_negctrl_site144] | 6.27
TGGTCTTTTAAACAAAAATATAAATTTTTAAATATG [CACACA_negctrl_site392] | 6.25
AGCTTGTGGATGCAGGTGCTACATTTGTTCTATAAT [GTGCAC_site9645] | 6.29
AATTTAATATAATGCACACATAAAAAAAAAAAATTC [CACACA_site1504] | 10.6
AAGAAAATTGTCTGAAGTACAAAACATTAATAATAT [XGTACX_site4864] | 6.59
TATAAAAATATTTCTACACACATTAAAATATATATA [CACACA_site4770] | 6.44
AATGAAAGGATGCTGTGTACATATATATATATATAT [XGTACX_site7901] | 9.38
CATTTGCCCAGGCACACACACATAAAAAGAAAAATA [CACACA_site356] | 6.34
AATGTGTAGACACGCACACACAAAAAAATATATATA [CACACA_site5595] | 6.82
AATGTAGAAATGGGTGCACACACATATATAATATAT [CACACA_site8799] | 10.2
